In the antibiotic and cytotoxicity screens of Wong et al. (2023):
The list shows a part of the results.

These compounds were tested on HepG2 (assay: cytotoxicity call (relative viability < 0.9)). Conditions: 10 µM.
`O=C(C[C@@H]1C=C[C@H](NC(=O)CN2CCOCC2)[C@H](CO)O1)NC1CCC1` was tested, and the cytotoxicity call was “inactive”.
With `CCCN(C)C[C@@H]1Oc2cc(C#Cc3ccc(OC)cc3)ccc2S(=O)(=O)N([C@H](C)CO)C[C@@H]1C` the cytotoxicity call was “inactive”.
`COCCC(=O)N1CCC2(CC1)COC2` was tested, and the cytotoxicity call was “inactive”.
In the case of `CO[C@H]1CN(C)C(=O)c2ccc(NC(=O)c3ccc(F)cc3)cc2OC[C@@H](C)N(C(=O)CN(C)C)C[C@H]1C`, the cytotoxicity call is reported as “inactive”.
`C[C@@H]1CCCCO[C@H](CN(C)Cc2ccc3c(c2)OCO3)[C@@H](C)CN([C@H](C)CO)C(=O)c2cc(NS(=O)(=O)c3ccc(F)cc3)ccc2O1` was tested, and the cytotoxicity call was “inactive”.
With `C[C@H](CO)N1C[C@H](C)[C@H](CN(C)Cc2ccc(-c3ccccc3)cc2)OCc2ccccc2-c2ccccc2C1=O` the cytotoxicity call was “inactive”.
`O=C(C[C@H]1CC[C@H]2[C@@H](COC[C@H](O)CN2Cc2cccc(C(F)(F)F)c2)O1)NCCc1ccncc1` was tested, and the cytotoxicity call was “inactive”.
`COc1ccc(CCC(=O)c2c(O)cc(O[C@@H]3O[C@H](CO)[C@@H](O)[C@H](O)[C@H]3O[C@@H]3O[C@@H](C)[C@H](O)[C@@H](O)[C@H]3O)cc2O)cc1O` was tested, and the cytotoxicity call was “inactive”.
In the case of `COc1ccc(S(=O)(=O)N(C)C[C@@H]2Oc3ccc(NS(=O)(=O)c4c(C)noc4C)cc3CC(=O)N([C@H](C)CO)C[C@H]2C)cc1`, the cytotoxicity call is reported as “inactive”.
For `COc1ccccc1C#Cc1ccc2c(c1)O[C@@H](CN(C)C(C)=O)[C@H](C)CN([C@@H](C)CO)S2(=O)=O`, the cytotoxicity call was “inactive”.
`C[C@@H]1CCCCO[C@H](CN(C)Cc2ccc3c(c2)OCO3)[C@@H](C)CN([C@H](C)CO)C(=O)c2cc(NC(=O)C3CCCCC3)ccc2O1` was tested, and the cytotoxicity call was “active”.
`Cc1ccc(S(=O)(=O)N[C@@H]2C=C[C@@H](CC(=O)NCCN3CCCCC3)O[C@H]2CO)cc1` was tested, and the cytotoxicity call was “inactive”.
In the case of `CCCNC(=O)Nc1ccc2c(c1)C(=O)N(C)C[C@@H](OC)[C@@H](C)CN(Cc1ccc(-c3ccccn3)cc1)[C@H](C)CO2`, the cytotoxicity call is reported as “inactive”.
For `C[C@@H]1CN([C@@H](C)CO)S(=O)(=O)c2ccc(-c3ccc(C(=O)N(C)C)cc3)cc2O[C@@H]1CN(C)C(=O)C1CCOCC1`, the cytotoxicity call was “inactive”.
With `CC(C)NC(=O)Nc1ccc2c(c1)C(=O)N([C@H](C)CO)C[C@H](C)[C@H](CN(C)C(=O)Nc1cccc3ccccc13)OCCCC[C@@H](C)O2` the cytotoxicity call was “inactive”.
With `COc1ccc(NC(=O)Nc2ccc3c(c2)C(=O)N([C@H](C)CO)C[C@@H](C)[C@@H](CN(C)S(=O)(=O)c2ccc(C)cc2)OCCCC[C@H](C)O3)cc1` the cytotoxicity call was “inactive”.
`Cc1noc(C)c1NC(=O)N(C)C[C@@H]1OCCCC[C@@H](C)Oc2ccc(NC(=O)Nc3ccccc3)cc2C(=O)N([C@@H](C)CO)C[C@H]1C` was tested, and the cytotoxicity call was “inactive”.
With `C[C@@H]1CN([C@H](C)CO)S(=O)(=O)c2ccc(C#Cc3ccncc3)cc2O[C@@H]1CN(C)C(=O)C1CCCCC1` the cytotoxicity call was “active”.
For `CNC[C@@H](O)c1ccc(O)c(O)c1`, the cytotoxicity call was “inactive”.
With `C[C@@H]1CN([C@@H](C)CO)C(=O)c2cc(NC(=O)CCC(F)(F)F)ccc2O[C@@H](C)CCCCO[C@H]1CN(C)C(=O)Nc1ccccc1` the cytotoxicity call was “inactive”.
In the case of `COc1ccc(S(=O)(=O)N(C)C[C@@H]2Oc3c(NC(=O)C4CC4)cccc3C(=O)N([C@@H](C)CO)C[C@@H]2C)cc1`, the cytotoxicity call is reported as “inactive”.
For `C[C@H](CO)N1C[C@H](C)[C@H](CN(C)S(C)(=O)=O)OCc2cnnn2CCCC1=O`, the cytotoxicity call was “inactive”.
In the case of `N#Cc1ccc(NCCNC(=N)N)nc1`, the cytotoxicity call is reported as “inactive”.
`C[C@@H]1CN([C@H](C)CO)C(=O)c2cccc(NC(=O)CCCCCC(=O)Nc3ccccc3N)c2O[C@H]1CN(C)C(=O)Nc1ccccc1` was tested, and the cytotoxicity call was “inactive”.
In the case of `C[C@@H]1CN([C@H](C)CO)C(=O)c2cc(NS(=O)(=O)c3ccc(F)cc3)ccc2O[C@H]1CN(C)CC1CC1`, the cytotoxicity call is reported as “inactive”.
With `COc1ccc(NC(=O)Nc2cccc3c2O[C@@H](CN(C)Cc2ccc(-c4ccccc4)cc2)[C@@H](C)CN([C@@H](C)CO)C3=O)cc1` the cytotoxicity call was “inactive”.
In the case of `C[C@@H]1CN([C@H](C)CO)C(=O)c2cc(C#CCN(C)C)cnc2O[C@@H]1CN(C)Cc1cccc(C(=O)O)c1`, the cytotoxicity call is reported as “inactive”.
In the case of `C1CC2(CCN1)OCCS2`, the cytotoxicity call is reported as “inactive”.
In the case of `O[C@@H]1Cc2ccccc2[C@H]1O`, the cytotoxicity call is reported as “inactive”.
With `C[C@@H]1CCCCO[C@H](CN(C)C(=O)Nc2ccccc2)[C@@H](C)CN([C@H](C)CO)C(=O)c2cc(NC(=O)CCC(F)(F)F)ccc2O1` the cytotoxicity call was “inactive”.
